Reference: PubChem BioAssay AID686978 (National Center for Advancing Translational Sciences (NCATS), 2013)
About 64,000 (15%) of roughly 420,000 compounds were called active. Inconclusive results, whose numbers are uncertain, are shown with a selection of clear calls. Calls come from the whole dose curve; as a rule, active = well fitted inhibition curve with a large enough effect; inconclusive = small, poorly fitted or top-dose-only effect; inactive = flat fitted curve, though single readings scatter. Potencies of inconclusive entries are left out as doubtful fits.

Assay: qHTS for Inhibitors of human tyrosyl-DNA phosphodiesterase 1 (TDP1): qHTS in cells in absence of CPT; note: nearly all actives have a fitted effect of over 55% in size
Details: DT40 Tdp1-/- hTDP1 cells, no CPT, ATP luminescence, 48 h; series mostly up to 46.2 µM
How it was run: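 DT40 Tdp1-/-;hTDP1 cells, no CPT (DMSO vehicle only), 400 cells/well; compounds pin-transferred; ≥48 hr, 37 °C; CellTiter-Glo 30 min RT dark, luminescence read.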
Potency is the fitted concentration of half-maximal effect; tags give direction and shape of the fitted curve.

For `COCCNC(=O)C1Nc2ccc(C(F)(F)F)cc2C2C=CCC12` (stereo not given), which Potency is on record?
Its Potency is inconclusive [inhibitor, partial curve].

For `Cn1c(=O)n(C)c2cc(NC(=O)COc3ccc(F)cc3)ccc21`, which Potency is on record?
Its Potency is inconclusive [inhibitor, single point].

For `O=C1CCC(C(=O)OCc2cc(Cl)ccc2OC(F)F)N1` (stereo not given), which Potency is on record?
Its Potency is inconclusive [inhibitor, single point].

With `Cc1ccc(S(=O)(=O)C2CCN(c3nc(-c4cccs4)nc4ccccc34)CC2)cc1` as the compound, how does the Potency read?
The Potency was inconclusive [inhibitor, single point].

For `ClN=C1C=CC=CC1=NCl`, which Potency is on record?
The Potency was inconclusive [inhibitor, single point].

With `COCCOC(=O)C1=C(C)Nc2ncnn2C1c1ccccc1` (stereo not given) as the compound, how does the Potency read?
Its Potency is “inactive”.

With `Cc1ccc(C(NC(N)=O)c2ccccc2)cc1` (stereo not given) as the compound, how does the Potency read?
Its Potency is inconclusive [inhibitor, full curve, poor fit].

For `CC(C)(C)c1ccccc1NC(=O)Nc1nc(C(N)c2ccccc2)cs1` (stereo not given), which Potency is on record?
Its Potency is inconclusive [inhibitor, single point].

Which Potency does the source give for `Cn1c(/C=C/c2ccc(Br)cc2)c([N+](=O)[O-])c(=O)n(C)c1=O` here?
The Potency was active: 11.6 µM.

With `CCc1ccc(NC(=O)CNC(=O)c2nn(-c3ccc(OC)cc3)c(=O)c3ccccc23)cc1` as the compound, how does the Potency read?
Its Potency is inconclusive [inhibitor, single point].

Which Potency does the source give for `Cc1ccc(C)n1-c1nn(S(=O)(=O)c2ccccc2)c2cccc(F)c12` here?
Its Potency is inconclusive [inhibitor, single point].

Which Potency does the source give for `COc1ccc(C)cc1N(CC(=O)NC(C)c1ccccc1)S(C)(=O)=O` (stereo not given) here?
Its Potency is “inactive”.

Which Potency does the source give for `CC(SC1=NCCS1)C(=O)Nc1nnc(-c2ccc(Br)cc2)s1` (stereo not given) here?
Its Potency is inconclusive [inhibitor, single point].

With `CCN(C(=O)CSc1nc(C)nc2sc(C)c(C)c12)c1ccc(F)cc1` as the compound, how does the Potency read?
Its Potency is inconclusive [inhibitor, partial curve].

With `O=S(=O)(NCC(Nc1ccccc1)c1ccccc1)c1ccc(Cl)cc1` (stereo not given) as the compound, how does the Potency read?
Its Potency is active: 29.1 µM.

For `CCCCCCCCCn1c2c(c(=N)c3c1CCC3)CCCC2`, which Potency is on record?
The Potency was active: 0.0184 µM.

Which Potency does the source give for `Nc1ccc(/C=C/c2ccnc3ccccc23)c([N+](=O)[O-])c1` here?
Its Potency is active: 10 µM.

With `FC(F)(F)c1cnc(COc2cc(Cl)cc(Cl)c2)c(Cl)c1` as the compound, how does the Potency read?
The Potency was “inactive”.

For `Cc1ccc(Cl)c2c1NC(=O)C2=O`, which Potency is on record?
Its Potency is inconclusive [inhibitor, single point].

With `O=C(Nc1cccc(S(=O)(=O)NCc2ccco2)c1)c1cccc(Cl)c1` as the compound, how does the Potency read?
Its Potency is inconclusive [inhibitor, single point].

For `Cc1ccccc1NS(=O)(=O)c1ccc(C(=O)NCc2ccccc2CN2CCCC2)cc1`, which Potency is on record?
The Potency was active: 23.1 µM.

Which Potency does the source give for `O=c1cc(N/N=C/c2ccccc2)[nH]c(=O)[nH]1` here?
The Potency was active: 4.61 µM.

With `COc1ccc(C(=O)N2CCCN(C)CC2)c(OC)c1` as the compound, how does the Potency read?
Its Potency is “inactive”.

Which Potency does the source give for `CCN(CC)CCCN(Cc1cc2cc(OC)ccc2[nH]c1=O)C(=O)Nc1ccc(F)cc1` here?
Its Potency is active: 20.6 µM.

With `O=C(c1ccccc1)C1CCN(c2ncccc2[N+](=O)[O-])CC1` as the compound, how does the Potency read?
The Potency was inconclusive [inhibitor, single point].

Which Potency does the source give for `COc1ccc(CN2CCCC(n3cc(C(=O)N4CCCCC4)nn3)C2)c(OC)c1OC` (stereo not given) here?
The Potency was “inactive”.

For `COc1ccc(Cl)cc1NC(=O)c1cc(S(=O)(=O)N2CCc3ccccc32)cn1C`, which Potency is on record?
Its Potency is “inactive”.

Which Potency does the source give for `COc1ccccc1NC(CC(=O)c1ccccc1)C(=O)OCC(=O)c1ccc(Br)cc1` (stereo not given) here?
The Potency was inconclusive [inhibitor, single point].

With `O=C(COn1nnc2ccc(S(=O)(=O)N3CCOCC3)cc21)NCCc1ccccc1` as the compound, how does the Potency read?
The Potency was inconclusive [inhibitor, full curve, poor fit].

For `Cc1nc2cnc(N3CCOCC3)nc2n(CCC#N)c1=O`, which Potency is on record?
The Potency was “inactive”.

Which Potency does the source give for `O=C1NC[C@H](Cc2ccccc2)N(CC2CCN(CCC34CC5CC(CC(C5)C3)C4)CC2)C1=O` here?
The Potency was inconclusive [inhibitor, single point].

With `Cc1nn(CCC(=O)NC(C)C)c(=O)c2nn(-c3ccccc3)c(C)c12` as the compound, how does the Potency read?
Its Potency is “inactive”.

For `Cc1c(C(=O)CN2CCSCC2)c2ccccc2n1C`, which Potency is on record?
The Potency was “inactive”.

With `CCCC/C(C)=N/NC(=O)NC1CCCCC1` as the compound, how does the Potency read?
Its Potency is “inactive”.

Which Potency does the source give for `COCCN1CCN(C(=O)C2CCC(=O)N(CCc3cccc(F)c3)C2)CC1` (stereo not given) here?
Its Potency is “inactive”.

For `CCc1nc(OCc2ccccc2)c2sc3nc4c(cc3c2n1)COC(C)(C)C4`, which Potency is on record?
Its Potency is inconclusive [inhibitor, partial curve, poor fit].

With `Cc1ccc(CNC(=O)CCC(=O)N2CC(C)Oc3ccccc32)cc1` (stereo not given) as the compound, how does the Potency read?
Its Potency is “inactive”.

With `CCOC(=O)CSc1nnc(-c2c[nH]c3ccccc23)o1` as the compound, how does the Potency read?
The Potency was “inactive”.

For `COc1cc2c(C(=O)N3CCN(c4cccc(C)c4)C(C)C3)cn(CC(C)C)c(=O)c2cc1OC` (stereo not given), which Potency is on record?
The Potency was inconclusive [inhibitor, single point].

Which Potency does the source give for `CN(Cc1ccccc1F)C(=O)CCCNC(=O)c1ccc(Cl)cc1` here?
The Potency was inconclusive [inhibitor, partial curve].

For `CC(=O)CC(=O)Nc1ccc(C(N)=O)cc1`, which Potency is on record?
The Potency was “inactive”.

With `CC(C)(C(=O)N1CCC1(C)C(=O)NS(=O)(=O)c1cccc(C#N)c1)c1ccccc1` (stereo not given) as the compound, how does the Potency read?
The Potency was “inactive”.

With `CCOc1ccc(C(=O)c2ccc(O)c(O)c2O)cc1` as the compound, how does the Potency read?
Its Potency is inconclusive [inhibitor, single point].

With `C=CCC[C@H](Cc1ccc(F)cc1)C(=O)OC[C@@H](C)NC(=O)[C@@H](CC=C)CC(=O)N[C@@H](CO)Cc1ccccc1` as the compound, how does the Potency read?
The Potency was active: 14.6 µM.

Which Potency does the source give for `Cc1cc(SCC(=O)c2ccc(O)c(O)c2)n2nc(C)c(-c3ccccc3)c2n1` here?
Its Potency is active: 14.6 µM.

Which Potency does the source give for `O=C(CSc1nc2c([nH]c3ccccc32)c(=O)n1-c1cccc(Cl)c1)N1CCc2ccccc21` here?
The Potency was inconclusive [inhibitor, partial curve].

With `CCOC(=O)c1ccc(-c2c(-c3ccccc3OC)sc3cc4c(cc23)OCO4)cc1F` as the compound, how does the Potency read?
The Potency was inconclusive [inhibitor, single point].

With `Cc1cc(C)cc(C(O)c2ncc(-c3cccc(F)c3)[nH]2)c1` (stereo not given) as the compound, how does the Potency read?
Its Potency is inconclusive [inhibitor, single point].

Which Potency does the source give for `CCCc1nc2ccccc2n1C(CCSC)C(=O)NC(C)(C)C` (stereo not given) here?
Its Potency is inconclusive [inhibitor, partial curve].

For `Cc1ccc2nc(NCc3ccccc3Cl)c3nnnn3c2c1`, which Potency is on record?
Its Potency is active: 10.3 µM.

With `CCOC(=O)c1c(-c2ccc(C)o2)csc1NC(=O)CN1CCN(CC)CC1` as the compound, how does the Potency read?
The Potency was active: 29.1 µM.

With `CC1CCCN(C(=O)C(=O)c2cn(CC(=O)N3CCCCCC3)c3ccccc23)C1` (stereo not given) as the compound, how does the Potency read?
Its Potency is “inactive”.

Which Potency does the source give for `Cc1ccc2[nH]c3c(c2c1)CN(C(=O)CN1CCN(c2ccccn2)CC1)CC3` here?
Its Potency is inconclusive [inhibitor, single point].

Which Potency does the source give for `CCn1c(=O)cc(SCC(=O)N2CCN(Cc3ccc4c(c3)OCO4)CC2)c2ccccc21` here?
The Potency was inconclusive [inhibitor, single point].

With `COc1ccccc1-c1nc(SCC(=O)N2CCOCC2)n[nH]1` as the compound, how does the Potency read?
Its Potency is “inactive”.

With `COc1cccc(Cc2nc3ccccc3nc2SCC(=O)N2CCCCC2C)c1` (stereo not given) as the compound, how does the Potency read?
Its Potency is active: 5.17 µM.

With `O=C(Cn1cnc2ccccc21)Nc1ccccc1-c1ccccc1` as the compound, how does the Potency read?
The Potency was active: 2.31 µM.

For `CSc1ccc(CN(C)C(=O)C(Cc2ccccc2)NC(=O)c2ccccc2)cc1` (stereo not given), which Potency is on record?
The Potency was inconclusive [inhibitor, single point].

Which Potency does the source give for `Cc1ccc(C(=O)NCCN2CCC(n3c(=O)[nH]c4ccccc43)CC2)cc1C` here?
Its Potency is inconclusive [inhibitor, partial curve, poor fit].

With `CCCCNC(=O)CSc1nc2ccccc2c(=O)n1CCNC(C)=O` as the compound, how does the Potency read?
The Potency was “inactive”.

Which Potency does the source give for `CC(C)(C)Sc1ccc2nc3c(n2c1)CCCC3` here?
Its Potency is active: 5.8 µM.

With `CC(C)n1cnnc1SCC(=O)Nc1ccc(N2CCCCC2)cc1` as the compound, how does the Potency read?
The Potency was “inactive”.

For `c1ccc(-c2ncnc3cc4n(c23)CCC4)cc1`, which Potency is on record?
Its Potency is inconclusive [inhibitor, single point].

With `CC(=O)Nc1ccc(Nc2cc(C)nc3c(-c4ccc(Cl)cc4)c(C)nn23)cc1` as the compound, how does the Potency read?
The Potency was inconclusive [inhibitor, single point].

Which Potency does the source give for `COc1cc(OC)cc(C(=O)NCc2cccnc2)c1` here?
Its Potency is “inactive”.

For `Cc1ccc(NC(=O)NCc2c(C)nn(C)c2C)cc1Cl`, which Potency is on record?
Its Potency is inconclusive [inhibitor, single point].

Which Potency does the source give for `Cc1ccc(-c2csc(C(O)c3ccccc3)n2)cc1C` (stereo not given) here?
The Potency was inconclusive [inhibitor, partial curve, poor fit].

With `COc1cccc(C(=O)CN2CCN(S(=O)(=O)c3ccc(Cl)cc3)CC2)c1` as the compound, how does the Potency read?
The Potency was inconclusive [inhibitor, single point].

With `O=C(Cc1ccc(-c2ccccc2)cc1)NCc1ccccc1` as the compound, how does the Potency read?
The Potency was active: 0.461 µM.

For `O=C(CSc1nncs1)NC1CCCCCCC1`, which Potency is on record?
The Potency was inconclusive [inhibitor, single point].

Which Potency does the source give for `Cc1nc(SCC(=O)NCC2COc3ccccc3O2)c2c(C)c(C)sc2n1` (stereo not given) here?
Its Potency is inconclusive [inhibitor, single point].

Which Potency does the source give for `O=C(NCc1ccccn1)c1ccc2ccccc2n1` here?
The Potency was “inactive”.

Which Potency does the source give for `O=C(CN1C(=O)CSc2ccc(S(=O)(=O)N3CCCCC3)cc21)NCc1ccc(F)cc1Cl` here?
The Potency was inconclusive [inhibitor, single point].

For `O=C(NCc1ccco1)c1ccc2c(c1)N(Cc1ccc(F)cc1)C(=O)c1ccccc1S2=O` (stereo not given), which Potency is on record?
The Potency was active: 16.4 µM.

With `COc1ccc(OC)c(CNc2nc3ccccc3n2CCN2CCCCC2)c1` as the compound, how does the Potency read?
The Potency was inconclusive [inhibitor, partial curve].
